T1: human OX40 on cells (CHO-hOX40, 293HEK-hOX40, Jurkat-hOX40, activated primary CD4+ T cells) (human, UniProt P43489 29-277)
T1 construct: whole, on cells; The cell type is told in each assay; also called CHO-OX40
T1 sequence (looked up): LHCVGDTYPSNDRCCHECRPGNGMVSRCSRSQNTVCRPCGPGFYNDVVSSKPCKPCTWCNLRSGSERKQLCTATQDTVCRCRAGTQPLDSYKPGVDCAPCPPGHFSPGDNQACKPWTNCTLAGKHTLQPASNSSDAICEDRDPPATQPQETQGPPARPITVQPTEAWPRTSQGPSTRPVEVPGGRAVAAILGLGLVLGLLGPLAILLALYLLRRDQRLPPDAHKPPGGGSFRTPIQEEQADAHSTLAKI

B1: ADI-20112, IgG1 format (antibody)
heavy: QVQLVESGGGVVQPGRSLRLSCAASGFTFSSYGMHWVRQAPGKGLEWVAVISYDGSNKYYADSVKGRFTISRDNSKNTLYLQMNSLRAEDTAVYYCARGRPWYSETGTSAFDIWGQGTMVTVSS[human IgG1 constant region cut from this listing]
light: DIQMTQSPSSLSASVGDRVTITCQASQDISNYLNWYQQKPGKAPKLLIYDASNLETGVPSRFSGSGSGTDFTFTISSLQPEDIATYYCQQSDHYPTFGGGTKVEIKRTVAAPSVFIFPPSDEQLKSGTASVVCLLNNFYPREAKVQWKVDNALQSGNSQESVTEQDSKDSTYSLSSTLTLSKADYEKHKVYACEVTHQGLSSPVTKSFNRGEC
notes: Made in yeast, 293HEK or CHO cells, depending on the assay; also called ADI-20112-g1
B2: ADI-20118, IgG1 format (antibody)
heavy: QVQLVQSGAEVKKPGASVKVSCKASGYTFTSYAISWVRQAPGQGLEWMGWISAYNGNTNYAQKLQGRVTMTTDTSTSTAYMELRSLRSDDTAVYYCARSGGGSGPNWFDPWGQGTLVTVSS[human IgG1 constant region cut from this listing]
light: DIQMTQSPSSLSASVGDRVTITCQASQDISNYLNWYQQKPGKAPKLLIYDASNLETGVPSRFSGSGSGTDFTFTISSLQPEDIATYYCQQPATLPWTFGGGTKVEIKRTVAAPSVFIFPPSDEQLKSGTASVVCLLNNFYPREAKVQWKVDNALQSGNSQESVTEQDSKDSTYSLSSTLTLSKADYEKHKVYACEVTHQGLSSPVTKSFNRGEC
notes: Made in yeast or 293HEK cells, depending on the assay
B3: ADI-20051, IgG1 format (antibody)
heavy: QVQLQQWGAGLLKPSETLSLTCAVYGGSFSGYYWSWIRQPPGKGLEWIGEIDHSGSTNYNPSLKSRVTISVDTSKNQFSLKLSSVTAADTAVYYCARDGGGGYASPFDYWGQGTLVTVSS[human IgG1 constant region cut from this listing]
light: EIVMTQSPATLSVSPGERATLSCRASQSVSSNLAWYQQKPGQAPRLLIYGASTRATGIPARFSGSGSGTEFTLTISSLQSEDFAVYYCQQYHAWPPTFGGGTKVEIKRTVAAPSVFIFPPSDEQLKSGTASVVCLLNNFYPREAKVQWKVDNALQSGNSQESVTEQDSKDSTYSLSSTLTLSKADYEKHKVYACEVTHQGLSSPVTKSFNRGEC
notes: as for B2

Biological target: T1, human OX40 on cells (CHO-hOX40, …)
Assay: flow cytometry, CHO-hOX40, 3.125 nM

Row | MFI [MFI] | Binder
1 | 1.98e+06 | B1
2 | 1.42e+06 | B2
3 | 2.82e+06 | B3

Biological target: T1, human OX40 on cells (CHO-hOX40, …)
Assay: flow cytometry, CHO-hOX40, 100 nM

Row | CHO-OX40 binding intensity (MFI) | Binder
4 | 153000 | B1
5 | 144000 | B2
6 | 151000 | B3

Biological target: T1, human OX40 on cells (CHO-hOX40, …)
Assay: cell-based or functional assay

Row | NFkB-Luc fold change in Jurkat stimulated by PHA+ anti-CD28 [fold over IgG4 control] | NFkB-Luc fold change in Jurkat stimulated by anti-CD3+ anti-CD28 [fold over IgG4 control] | Binder
7 | 4.19 | 3.97 | B1
8 | 3.99 | 5.27 | B2
9 | 1.83 | 1.29 | B3

Biological target: T1, human OX40 on cells (CHO-hOX40, …)
Assay: flow cytometry, activated CD4+ T cells, donor 1, 100 nM

Row | MFI [MFI] | Binder
10 | 100000 | B1
11 | 78600 | B2
12 | 141000 | B3

Biological target: T1, human OX40 on cells (CHO-hOX40, …)
Assay: flow cytometry, CHO-hOX40, 0.09765625 nM

Row | MFI [MFI] | Binder
13 | 80600 | B1
14 | 75500 | B2
15 | 125000 | B3

Biological target: T1, human OX40 on cells (CHO-hOX40, …)
Assay: flow cytometry, CHO-hOX40, 12.5 nM

Row | MFI [MFI] | Binder
16 | 3.64e+06 | B1
17 | 2.43e+06 | B2
18 | 3.52e+06 | B3

Biological target: T2, human OX40_Fc (R&D Systems) (human, UniProt P43489 29-216)
T2 construct: Bought
Assay: BLI, IgG1 on tip, hOX40-Fc 50 nM, avid

Row | Kd [nM] | Binder
19 | 0.735 | B1
20 | 0.51 | B2
21 | 0.74 | B3

Biological target: T1, human OX40 on cells (CHO-hOX40, …)
Assay: flow cytometry, CHO-hOX40, 1.5625 nM

Row | MFI [MFI] | Binder
22 | 1.54e+06 | B1
23 | 834000 | B2
24 | 977000 | B3

Biological target: T1, human OX40 on cells (CHO-hOX40, …)
Assay: flow cytometry, 293HEK-hOX40, 8 nM

Row | MFI [MFI] | Binder
25 | 1.98e+06 | B1
26 | 1.96e+06 | B2
27 | 2.33e+06 | B3

Biological target: T1, human OX40 on cells (CHO-hOX40, …)
Assay: flow cytometry, CHO-hOX40, 100 nM
Remark: another data set of the same source

Row | MFI [MFI] | Binder
28 | 3.82e+06 | B1
29 | 3.83e+06 | B2
30 | 4.35e+06 | B3

Biological target: T3, cyno OX40_Fc (Acro Biosystems) (cyno)
T3 construct: Bought
Assay: BLI, IgG1 on tip, cyno OX40-Fc 100 nM, avid

Row | Kd [nM] | Binder
31 | 5.98 | B1
32 | 11.4 | B2
33 | 11.8 | B3

Biological target: T1, human OX40 on cells (CHO-hOX40, …)
Assay: flow cytometry, CHO-hOX40, 0.78125 nM

Row | MFI [MFI] | Binder
34 | 655000 | B1
35 | 530000 | B2
36 | 604000 | B3

Biological target: T1, human OX40 on cells (CHO-hOX40, …)
Assay: flow cytometry, activated CD4+ T cells, donor 2, 100 nM

Row | MFI [MFI] | Binder
37 | 125000 | B1
38 | 107000 | B2
39 | 172000 | B3

Biological target: T1, human OX40 on cells (CHO-hOX40, …)
Assay: flow cytometry, CHO-hOX40, 0.390625 nM

Row | MFI [MFI] | Binder
40 | 303000 | B1
41 | 192000 | B2
42 | 494000 | B3

Biological target: T1, human OX40 on cells (CHO-hOX40, …)
Assay: flow cytometry, CHO-hOX40, 200 nM

Row | MFI [MFI] | Binder
43 | 3.97e+06 | B1
44 | 3.89e+06 | B2
45 | 3.89e+06 | B3

Biological target: T1, human OX40 on cells (CHO-hOX40, …)
Assay: flow cytometry, CHO-hOX40, 6.25 nM

Row | MFI [MFI] | Binder
46 | 2.64e+06 | B1
47 | 1.91e+06 | B2
48 | 3.06e+06 | B3

Biological target: T1, human OX40 on cells (CHO-hOX40, …)
Assay: flow cytometry, 293HEK-hOX40, 200 nM

Row | MFI [MFI] | Binder
49 | 2.31e+06 | B1
50 | 1.73e+06 | B2
51 | 2.47e+06 | B3

Biological target: T1, human OX40 on cells (CHO-hOX40, …)
Assay: flow cytometry, 293HEK-hOX40, 1.6 nM

Row | MFI [MFI] | Binder
52 | 895000 | B1
53 | 849000 | B2
54 | 788000 | B3

Biological target: T1, human OX40 on cells (CHO-hOX40, …)
Assay: flow cytometry, 293HEK-hOX40, 40 nM

Row | MFI [MFI] | Binder
55 | 1.92e+06 | B1
56 | 1.98e+06 | B2
57 | 2.39e+06 | B3

Biological target: T1, human OX40 on cells (CHO-hOX40, …)
Assay: flow cytometry, CHO-hOX40, 0.1953125 nM

Row | MFI [MFI] | Binder
58 | 226000 | B1
59 | 132000 | B2
60 | 294000 | B3

Biological target: T1, human OX40 on cells (CHO-hOX40, …)
Assay: flow cytometry, MFI on CHO-hOX40 over wild-type CHO

Row | Fold difference [fold] | Binder
61 | 2410 | B1
62 | 1870 | B2
63 | 1570 | B3

Reference: patent publication US20200140562A1 (Innovent, published 2020)
